The other results are listed elsewhere or left out.
What was measured:
Assay in all cases: glycan array binding signal (z-score within array); higher = stronger binding
Conditions in all cases: glycan notation: IUPAC condensed, linker removed
[1] = target: GlcNAc(b1-3)Gal(b1-4)GlcNAc(b1-3)Gal(b1-4)GlcNAc(b1-3)Gal(b1-4)GlcNAc(b1-3)Gal(b1-4)GlcNAc(b1-2)Man(a1-3)[GlcNAc(b1-3)Gal(b1-4)GlcNAc(b1-3)Gal(b1-4)GlcNAc(b1-3)Gal(b1-4)GlcNAc(b1-3)Gal(b1-4)GlcNAc(b1-2)Man(a1-6)]Man(b1-4)GlcNAc(b1-4)GlcNAc
How it was run: (§1)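 Glycan array binding is given as a within-array Z-score, which can be read as non-binding when negative. The arrays, 3228 of them, came from the Consortium for Functional Glycomics database and were retained only where the protein sequence was available. Z-scores were averaged across arrays of the same protein sequence at different concentrations or buffers and across linkers.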

[2] = target: GlcNAc(b1-3)Gal(b1-4)GlcNAc(b1-3)Gal(b1-4)GlcNAc(b1-3)Gal(b1-4)GlcNAc(b1-3)Gal(b1-4)GlcNAc(b1-2)Man(a1-3)[GlcNAc(b1-3)Gal(b1-4)GlcNAc(b1-3)Gal(b1-4)GlcNAc(b1-3)Gal(b1-4)GlcNAc(b1-3)Gal(b1-4)GlcNAc(b1-2)Man(a1-6)]Man(b1-4)GlcNAc(b1-4)[Fuc(a1-6)]GlcNAc
How it was run: as §1

[3] = target: GlcNAc(b1-3)Gal(b1-4)GlcNAc(b1-3)Gal(b1-4)GlcNAc(b1-3)Gal(b1-4)GlcNAc(b1-3)Gal(b1-4)GlcNAc(b1-2)[GlcNAc(b1-3)Gal(b1-4)GlcNAc(b1-3)Gal(b1-4)GlcNAc(b1-3)Gal(b1-4)GlcNAc(b1-3)Gal(b1-4)GlcNAc(b1-6)]Man(a1-6)[GlcNAc(b1-3)Gal(b1-4)GlcNAc(b1-3)Gal(b1-4)GlcNAc(b1-3)Gal(b1-4)GlcNAc(b1-3)Gal(b1-4)GlcNAc(b1-2)Man(a1-3)]Man(b1-4)GlcNAc(b1-4)[Fuc(a1-6)]GlcNAc
How it was run: as §1

[4] = target: GlcNAc(b1-3)Gal(b1-4)GlcNAc(b1-3)Gal(b1-4)GlcNAc(b1-3)GalNAc
How it was run: as §1

[5] = target: GlcNAc(b1-3)Gal(b1-4)GlcNAc(b1-3)GalNAc
How it was run: as §1

[6] = target: GlcNAc(b1-3)Gal(b1-4)GlcNAc(b1-3)[GlcNAc(b1-3)Gal(b1-4)GlcNAc(b1-3)]GalNAc
How it was run: as §1

[7] = target: GlcNAc(b1-3)Gal(b1-4)GlcNAc(b1-6)[Gal(b1-3)]GalNAc
How it was run: as §1

[8] = target: GlcNAc(b1-3)Gal(b1-4)GlcNAc(b1-6)[GlcNAc(b1-3)Gal(b1-3)]GalNAc
How it was run: as §1

[9] = target: GlcNAc(b1-3)Gal(b1-4)GlcNAc(b1-6)[GlcNAc(b1-3)]Gal(b1-4)GlcNAc
How it was run: as §1

GlcNAc(b1-3)GalNAc = target: GlcNAc(b1-3)GalNAc
How it was run: as §1

GlcNAc(b1-3)Man = target: GlcNAc(b1-3)Man
How it was run: as §1

[10] = target: GlcNAc(b1-3)[GlcNAc(b1-4)][GlcNAc(b1-6)]GlcNAc
How it was run: as §1

[11] = target: GlcNAc(b1-3)[GlcNAc(b1-6)]Gal(b1-4)GlcNAc
How it was run: as §1

[12] = target: GlcNAc(b1-3)[GlcNAc(b1-6)]GalNAc
How it was run: as §1

[13] = target: GlcNAc(b1-4)Gal(b1-4)GlcNAc
How it was run: as §1

GlcNAc(b1-4)GlcNAc = target: GlcNAc(b1-4)GlcNAc
How it was run: as §1

[14] = target: GlcNAc(b1-4)GlcNAc(b1-4)GlcNAc
How it was run: as §1

[15] = target: GlcNAc(b1-4)GlcNAc(b1-4)GlcNAc(b1-4)GlcNAc(b1-4)GlcNAc
How it was run: as §1

[16] = target: GlcNAc(b1-4)GlcNAc(b1-4)GlcNAc(b1-4)GlcNAc(b1-4)GlcNAc(b1-4)GlcNAc
How it was run: as §1

[17] = target: GlcNAc(b1-4)[GlcNAc(b1-6)]GalNAc
How it was run: as §1

[18] = target: GlcNAc(b1-6)Gal(b1-4)GlcNAc
How it was run: as §1

GlcNAc(b1-6)GalNAc = target: GlcNAc(b1-6)GalNAc
How it was run: as §1

B1: Gal 1 (Mus musculus), P16045 (protein)
chain: MACGLVASNLNLKPGECLKVRGEVASDAKSFVLNLGKDSNNLCLHFNPRFNAHGDANTIVCNTKEDGTWGTEHREPAFPFQPGSITEVCITFDQADLTIKLPDGHEFKFPNRLNMEAINYMAADGDFKIKCVAFE
- glycan array binding signal (z-score) [1]: -0.029
- glycan array binding signal (z-score) [2]: 0.018
- glycan array binding signal (z-score) [3]: 0.02
- glycan array binding signal (z-score) [4]: -0.371
- glycan array binding signal (z-score) [5]: -0.347
- glycan array binding signal (z-score) [6]: -0.25
- glycan array binding signal (z-score) [7]: -0.316
- glycan array binding signal (z-score) [8]: -0.396
- glycan array binding signal (z-score) [9]: -0.475
- glycan array binding signal (z-score) (GlcNAc(b1-3)GalNAc): -0.094
- glycan array binding signal (z-score) (GlcNAc(b1-3)Man): -0.409
- glycan array binding signal (z-score) [10]: -0.09
- glycan array binding signal (z-score) [11]: -0.39
- glycan array binding signal (z-score) [12]: -0.292
- glycan array binding signal (z-score) [13]: -0.368
- glycan array binding signal (z-score) (GlcNAc(b1-4)GlcNAc): -0.41
- glycan array binding signal (z-score) [14]: -0.316
- glycan array binding signal (z-score) [15]: -0.359
- glycan array binding signal (z-score) [16]: -0.336
- glycan array binding signal (z-score) [17]: -0.141
- glycan array binding signal (z-score) [18]: -0.455
- glycan array binding signal (z-score) (GlcNAc(b1-6)GalNAc): -0.368
